The campaign covered roughly 48,000 compounds. About 450 (0.94%) were called active. Inconclusive results, whose numbers are uncertain, are shown with a selection of clear calls. Calls come from the whole dose curve; as a rule, active = well fitted inhibition curve with a large enough effect; inconclusive = small, poorly fitted or top-dose-only effect; inactive = no such curve, though single readings can be large or run the other way. Where the call is inconclusive, the potency comes from a doubtful curve fit.
assay: Primary qHTS for Identification of Small Molecule Inhibitors of Huntingtin Promoter Activity; settings: HEK293 HTT promoter firefly luciferase reporter (activity 0% = vehicle and -100% = no light), 24 h; activity change, negative = inhibition: at 57.5 µM (top of the series); note: nearly all actives have a fitted effect of over 50% in size
Method in brief: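 HEK293 cells carrying firefly luciferase reporters were seeded at 2,500 per well in Opti-MEM and cultured for 24 h. They were then treated with compounds at up to 57.5 uM final for 24 h at 37 degrees C before Dual-Glo luminescence readout.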
Potency is the fitted concentration of half-maximal effect; tags give direction and shape of the fitted curve.

| SMILES | Potency | activity change, negative = inhibition |
| --- | --- | --- |
| CCOc1cc(C(=O)Nc2ccc3oc(-c4ccc(CC)cc4)nc3c2)cc(OCC)c1OCC | inconclusive: 3.98 µM [inhibitor, full curve] | – |
| COc1ccc(CCNC(=O)CCc2c(C)nc3cc(-c4ccccc4)nn3c2C)cc1OC | inconclusive: 1 µM [inhibitor, full curve, poor fit] | – |
| Cc1ccc2c(CNCc3cccs3)c(C(=O)O)n(Cc3ccc(F)cc3)c2c1 | inconclusive: 22.4 µM [inhibitor, partial curve, poor fit] | – |
| CCOc1ccc(Sc2cc(C(=O)NCc3ccc(F)cc3)c3ccccc3n2)cc1 | inconclusive: 25.1 µM [inhibitor, partial curve] | – |
| COc1ccc(NS(=O)(=O)c2ccc3c(c2)CCN3C(=O)C2CC2)cc1OC | active: 3.98 µM | – |
| Cc1ccccc1CNC(=O)C(=O)NCC(c1ccco1)S(=O)(=O)c1ccc(F)cc1 (configuration not stated) | inconclusive: 39.8 µM [inhibitor, partial curve, poor fit] | – |
| COc1ccccc1N1CCN(C(=O)CCn2cnc3onc(-c4ccc(F)cc4)c3c2=O)CC1 | – | inactive: 3.67% |
| COc1cccc2cc(-c3nnc(Nc4ccccc4C)s3)c(=O)oc12 | – | inactive: 67.9% |
| CSc1ccc(CCNC(=O)C(C)n2nc(C)c3c(C)n(-c4ccccc4)nc3c2=O)cc1 (configuration not stated) | inconclusive: 39.8 µM [inhibitor, single point] | – |
| Cc1cccc(CNC(=O)c2ccc(-c3nc(CS(=O)(=O)c4ccccc4)c(C)o3)cc2)c1 | inconclusive: 25.1 µM [inhibitor, partial curve, poor fit] | – |
| Cc1ccc(CCNC(=O)Cn2nc(C)c3c(C)n(-c4ccc(C)cc4)nc3c2=O)cc1 | inconclusive: 25.1 µM [inhibitor, partial curve, poor fit] | – |
| CN(C)c1ccc(-c2nc(-c3ccccn3)no2)cc1[N+](=O)[O-] | inconclusive: 39.8 µM [inhibitor, single point] | – |
| Cc1ccc(Nc2cc(C(=O)NC3CCCC3)c3ccccc3n2)cc1C | inconclusive: 20 µM [inhibitor, partial curve, poor fit] | – |
| CCOc1ccc(-c2csc3ncnc(Nc4cccc(O)c4)c23)cc1 | inconclusive: 25.1 µM [inhibitor, single point] | – |
| CC(=O)N1CCCc2cc(S(=O)(=O)N3CCC(C(=O)NCc4ccc(F)cc4)CC3)ccc21 | inconclusive: 25.1 µM [inhibitor, partial curve, poor fit] | – |
| Cc1nc(-c2ccc(F)cc2)sc1CCNC(=O)c1ccccc1 | – | inactive: -11.7% |
| COC(=O)c1cc(C)nc2c1c(=O)nc(SCc1cc(C)ccc1C)n2C1CC1 | inconclusive: 39.8 µM [inhibitor, single point] | – |
| COc1ccc(NC(=O)CSc2nc3ccccc3n2CC(=O)Nc2cccc(C)c2C)cc1 | inconclusive: 39.8 µM [inhibitor, single point] | – |
| Cc1cccc(-c2nnn3c2nc(NCCC(C)C)c2ccccc23)c1 | – | inactive: -10.2% |
| COc1cc(C(=O)OC(COCCC(C)C)CN2CCOCC2)cc(OC)c1OC (configuration not stated) | – | inactive: 1.36% |
| Oc1ccc(C2CCN(c3ccnc4ccccc34)CC2)cc1O | inconclusive: 24.3 µM [inhibitor, single point] | – |

| SMILES | Potency | activity change, negative = inhibition |
| --- | --- | --- |
| Cc1ccc(S(=O)(=O)c2nnn3c2nc(NCc2ccc(F)cc2)c2sccc23)cc1C | inconclusive: 39.8 µM [inhibitor, single point] | – |
| Cc1ccc(OCCSc2nc3ccccc3n2CC(=O)N2CCCCC2)c(C)c1 | inconclusive: 39.8 µM [inhibitor, partial curve, poor fit] | – |
| NC(=O)N[C@@H](CCC(=O)O)C(=O)O | – | inactive: 13.3% |
| O=C(Cn1c(=O)oc2cc(S(=O)(=O)N3CCCC3)ccc21)Nc1ccc(OC(F)(F)F)cc1 | inconclusive: 3.98 µM [inhibitor, full curve] | – |
| COc1ccc(-c2ccc(NS(=O)(=O)c3ccccc3Cl)cc2)nn1 | inconclusive: 20 µM [inhibitor, partial curve, poor fit] | – |
| CCN(CC)CCNC(=O)c1ccc2c(=O)n3nc(Nc4cccc(Cl)c4C)sc3nc2c1 | inconclusive: 17.8 µM [inhibitor, partial curve, poor fit] | – |
| CC(C)(C)COc1ccc(-n2cc(C(=O)O)cn2)cc1C#N | inconclusive: 43.2 µM [inhibitor, single point] | – |
| COC(=O)[C@H](c1ccccc1Cl)N1CCc2sccc2C1 | inconclusive: 30.6 µM [inhibitor, single point] | – |
| CCOC(=O)c1ccc(NC(=O)Cn2cc(S(=O)(=O)Cc3ccccc3F)c3ccccc32)cc1 | inconclusive: 20 µM [inhibitor, single point] | – |
| CCOC(=O)c1c(-c2ccccc2)csc1NC(=O)c1cc(-c2cccc(Cl)c2)on1 | – | inactive: -4.71% |
| CC(=O)c1cccc(NC(=O)c2ccc3c(c2)c(C)c(C)n3Cc2ccc(Cl)cc2)c1 | inconclusive: 28.2 µM [inhibitor, partial curve, poor fit] | – |
| CN(Cc1ccccc1)S(=O)(=O)c1ccc(F)c(C(=O)Nc2cc(Cl)cc(Cl)c2)c1 | – | inactive: -28.4% |
| CCCCc1ccc(NS(=O)(=O)c2ccc(N3CCCCS3(=O)=O)cc2)cc1 | inconclusive: 20 µM [inhibitor, single point] | – |
| CCOc1ccc(C(=O)c2cn(Cc3ccccc3)c3c(F)cc(F)cc3c2=O)cc1 | inconclusive: 28.2 µM [inhibitor, partial curve, poor fit] | – |
| O=C1NC(O)CCN1[C@@H]1O[C@H](CO)[C@H](O)[C@H]1O (some centres not stated) | – | inactive: 2.47% |
| O=C(NCc1cccc(F)c1)c1ccc2nc(N3CCCCC3)sc2c1 | inconclusive: 8.91 µM [inhibitor, partial curve, poor fit] | – |
| COC(=O)c1c(C)oc2ccc(N(C(=O)Oc3ccccc3)S(=O)(=O)c3ccc(C(C)(C)C)cc3)cc12 | inconclusive: 2.82 µM [inhibitor, single point] | – |
| O=C(NCCc1ccc(Cl)cc1)c1ccc2c(c1)N(Cc1c(F)cccc1Cl)C(=O)CS2 | inconclusive: 28.2 µM [inhibitor, partial curve] | – |
| Cc1ccc(NC(=O)C2CCCN(S(=O)(=O)c3c(C)n[nH]c3C)C2)cc1Cl (configuration not stated) | inconclusive: 35.5 µM [inhibitor, partial curve, poor fit] | – |
| COc1ccc(-c2noc(N3CCN(c4ccc(C)cc4)C(C)C3)n2)cc1OC (configuration not stated) | inconclusive: 31.6 µM [inhibitor, partial curve, poor fit] | – |
| CCCCS(=O)(=O)c1oc(-c2ccc(F)cc2)nc1S(=O)(=O)c1ccccc1 | inconclusive: 39.8 µM [inhibitor, single point] | – |

| SMILES | Potency | activity change, negative = inhibition |
| --- | --- | --- |
| O=C(c1ccc2c(c1)N(Cc1ccc(F)cc1)C(=O)c1ccccc1S2(=O)=O)N1CCN(c2ccccn2)CC1 | inconclusive: 39.8 µM [inhibitor, single point] | – |
| CC(=O)c1ccc(N2CCN(C(=O)c3cc4ccc5cccnc5c4[nH]3)CC2)cc1 | – | inactive: -0.365% |
| O=C(c1cnc(N2CCCCC2)c2ccccc12)N1CCN(c2ccc(Cl)cc2)CC1 | inconclusive: 39.8 µM [inhibitor, single point] | – |
| COc1ccc(CCN2CC(C(=O)NCCc3ccccc3)CC2=O)cc1OC (configuration not stated) | – | inactive: 12.4% |
| Cc1ccc(C)c(S(=O)(=O)NCCc2csc(-c3ccc(Cl)cc3)n2)c1 | inconclusive: 31.6 µM [inhibitor, single point] | – |
| Cc1cccc(NC(=O)C2CCCN(S(=O)(=O)c3ccc4c(c3)oc(=O)n4C)C2)c1 (configuration not stated) | inconclusive: 44.7 µM [inhibitor, partial curve, poor fit] | – |
| O=C(Nc1cc(C(F)(F)F)cc(C(F)(F)F)c1)c1cc(Cl)ccc1O | inconclusive: 0.485 µM [inhibitor, full curve] | – |
| COc1ccc(NC(=O)c2cc(S(=O)(=O)NCCC3=CCCCC3)ccc2F)cc1 | inconclusive: 15.8 µM [inhibitor, partial curve, poor fit] | – |
| FC(F)(F)c1ccc(-c2noc(-c3ccccc3Br)n2)cc1 | inconclusive: 31.6 µM [inhibitor, single point] | – |
| COc1ccc(Cn2ccc3nc(C)c(C(=O)N4CCN(c5ccccc5F)CC4)cc3c2=O)cc1 | inconclusive: 31.6 µM [inhibitor, single point] | – |
| CCCCNC(=O)CSc1nc2cc3c(cc2c(=O)n1CCCCCC(=O)NCCc1ccc(OC)c(OC)c1)OCO3 | – | inactive: -8.02% |
| Cc1cc(C)c(S(=O)(=O)NCc2csc(-c3ccccc3)n2)c(C)c1 | inconclusive: 25.1 µM [inhibitor, partial curve, poor fit] | – |
| CCN(CC)C(=O)c1sc2c(c1C)c(=O)n(-c1ccc(C)c(C)c1)c(=O)n2Cc1cccc(Cl)c1 | inconclusive: 39.8 µM [inhibitor, single point] | – |
| O=C(C=Cc1cccnc1)NCCCCC1CCN(C(=O)c2ccccc2)CC1 | – | inactive: -14.6% |
| CCN(CC)CCn1c(-c2ccccc2)csc1=Nc1ccccc1 | – | inactive: -4.98% [at 11.5 µM] |
| CCCC(=O)c1cc(O)c(O)cc1O | inconclusive: 70.8 µM [inhibitor, single point] | – |
| O=C(COc1ccccc1[N+](=O)[O-])N1CCC(c2nc3ccccc3o2)CC1 | – | inactive: -11.8% |
| Cc1c(CC(=O)NCCc2ccccc2F)c(=O)oc2cc(O)c(Cl)cc12 | – | inactive: -8.99% |
| Cc1ccc(-n2ncc3c(N(CC(C)C)CC(C)C)ncnc32)c(C)c1 | inconclusive: 25.1 µM [inhibitor, partial curve, poor fit] | – |
| CC(C)S(=O)(=O)c1oc(-c2cccs2)nc1S(=O)(=O)c1ccc(F)cc1 | inconclusive: 39.8 µM [inhibitor, single point] | – |
